Measured values as given in paper PMC10017685 (Nature Communications, 2023).
Where two headings read alike, the source gives them in different places.

Columns and labels:
[1] = test system: S. aureus ATCC 33591; format: cell-based, Staphylococcus aureus
Description: (§1) Fresh cultures were used in antimicrobial assay. […] Moreover MBC was evaluated. […] All experiments were conducted in triplicate.

[2] = test system: E. coli ATCC 25922; format: cell-based, Escherichia coli
Description: as §1

[3] = test system: E. coli ATCC 43827; format: cell-based, Escherichia coli
[4] = test system: A. baumannii ATCC BAA 1605; format: cell-based, Acinetobacter baumannii; conditions: triplicate; for A. baumannii ATCC BAA 1605 MIC: second experimental round, broth microdilution (CLSI), Mueller-Hinton Broth, 0.5 × 10^5 CFU/mL, 1-[…], 18 h at 37 °C; for A. baumannii ATCC BAA 1605 MBC: second round, MIC well and two higher concentrations seeded on agar plates, no visible colonies
Description: as §1

[5] = test system: P. aeruginosa ATCC 9027; format: cell-based, Pseudomonas aeruginosa; conditions: triplicate; for P. aeruginosa ATCC 9027 MIC: second experimental round, broth microdilution (CLSI), Mueller-Hinton Broth, 0.5 × 10^5 CFU/mL, 1-[…], 18 h at 37 °C; for P. aeruginosa ATCC 9027 MBC: second round, MIC well and two higher concentrations seeded on agar plates, no visible colonies
Description: as §1

[6] = test system: Sheep red blood cells; assay: Hemolysis assay (HC50); format: cell-based; conditions: for HC50 (µM/ml): sheep erythrocytes, recalculated from μg/mL values, estimated as in https://pubmed.ncbi.nlm.nih.gov/29307075/; for HC50: sheep red blood cells 4% (v/v) in PBS, peptides 1-[…], 60 min at 37 °C, hemoglobin release at 590 nm, 1% Triton-X 100 = 100% hemolysis, triplicate, HC50 by ic50.tk
[7] = second round, MIC well and two higher concentrations seeded on agar plates, no visible colonies, triplicate
[8] = second experimental round, broth microdilution (CLSI), Mueller-Hinton Broth, 0.5 × 10^5 CFU/mL, 1-[…], 18 h at 37 °C, triplicate

Row | Compound | S. aureus ATCC 33591 MBC ([1]; Supplementary Data 5D/5E) [µg/mL] | S. aureus ATCC 33591 MIC ([1]; Supplementary Data 5D/5E) [µg/mL] | S. aureus ATCC 33591 MBC [1, 7] [µg/mL] | E. coli ATCC 25922 MBC ([2]; Supplementary Data 5D/5E) [µg/mL] | E. coli ATCC 25922 MIC ([2]; Supplementary Data 5D/5E) [µg/mL] | E. coli ATCC 25922 MIC [2, 8] [µg/mL] | E. coli ATCC 25922 MBC [2, 7] [µg/mL] | E. coli ATCC 43827 MBC ([3]; Supplementary Data 5D/5E) [µg/mL] | E. coli ATCC 43827 MIC ([3]; Supplementary Data 5D/5E) [µg/mL] | E. coli ATCC 43827 MIC [3, 8] [µg/mL] | E. coli ATCC 43827 MBC [3, 7] [µg/mL] | A. baumannii ATCC BAA 1605 MIC [4] [µg/mL] | A. baumannii ATCC BAA 1605 MBC [4] [µg/mL] | P. aeruginosa ATCC 9027 MIC [5] [µg/mL] | P. aeruginosa ATCC 9027 MBC [5] [µg/mL] | HC50 (µM/ml) [6] [µM/ml] | HC50 [6] [µg/mL] | S. aureus ATCC 33591 MIC [1, 8] [µg/mL] | other results
1 | CC[C@H](C)[C@H](N)C(=O)N[C@@H](CC(C)C)C(=O)N[C@@H](CCCNC(=N)N)C(=O)N[C@@H](Cc1c[nH]c2ccccc12)C(=O)N[C@H](C(=O)N[C@@H](Cc1c[nH]c2ccccc12)C(=O)N[C@@H](CCCCN)C(=O)N[C@H](C(=O)N[C@@H](Cc1c[nH]c2ccccc12)C(=O)N[C@@H](CCCNC(=N)N)C(=O)N[C@@H](CCCNC(=N)N)C(=O)N[C@@H](Cc1c[nH]c2ccccc12)C(N)=O)[C@@H](C)CC)[C@@H](C)CC [Alacemycin] | 16 | 8 | 16 | 32 | 32 | 32 | 32 | 16 | 16 | 16 | 16 | 8 | 16 | 32 | 64 | >215 | >512 | – | –
2 | CC[C@H](C)[C@H](NC(=O)[C@H](Cc1c[nH]c2ccccc12)NC(=O)[C@H](CCCNC(=N)N)NC(=O)[C@H](CC(C)C)NC(=O)[C@@H](N)CC(C)C)C(=O)N[C@@H](Cc1c[nH]c2ccccc12)C(=O)N[C@@H](CCCNC(=N)N)C(=O)N1CCC[C@H]1C(=O)N[C@@H](Cc1c[nH]c2ccccc12)C(=O)N[C@@H](CCCNC(=N)N)C(=O)N[C@@H](CCCNC(=N)N)C(N)=O [Centaxin] | 64 | 32 | 64 | 64 | 32 | 32 | 64 | 64 | 32 | 32 | 64 | 256 | 256 | 64 | 128 | >232 | >512 | 32 | –
3 | CC[C@H](C)[C@H](N)C(=O)N[C@@H](CC(C)C)C(=O)N[C@@H](CCCNC(=N)N)C(=O)N[C@@H](CCCCN)C(=O)N1CCC[C@H]1C(=O)N[C@@H](Cc1c[nH]c2ccccc12)C(=O)N[C@@H](CCCNC(=N)N)C(=O)N[C@H](C(=O)N[C@@H](Cc1c[nH]c2ccccc12)C(=O)N[C@@H](CCCNC(=N)N)C(=O)N[C@@H](CCCNC(=N)N)C(N)=O)[C@@H](C)CC [Omiganan-TII12] | >512 | 512 | >512 | 512 | 64 | 64 | 512 | 128 | 64 | 64 | 128 | >512 | >512 | 512 | >512 | >226 | >512 | 512 | –
4 | CC[C@H](C)[C@H](NC(=O)[C@H](CCCNC(=N)N)NC(=O)CN)C(=O)N[C@@H](CC(C)C)C(=O)N[C@@H](CCCCN)C(=O)N[C@@H](Cc1ccccc1)C(=O)N[C@H](C(=O)N[C@@H](CCCCN)C(=O)N[C@@H](CCCCN)C(=O)N[C@@H](C)C(=O)N[C@@H](Cc1c[nH]c2ccccc12)C(=O)N[C@@H](CCCNC(=N)N)C(=O)N[C@@H](CCCCN)C(=O)N[C@H](C(=O)N[C@@H](Cc1c[nH]cn1)C(=O)N[C@@H](CC(C)C)C(=O)N[C@@H](CCCCN)C(=O)N[C@@H](Cc1ccccc1)C(=O)N[C@@H](CC(=O)O)C(=O)N[C@@H](CCCCN)C(N)=O)[C@@H](C)CC)[C@@H](C)CC [Ratigan] | – | – | 64 | – | – | 32 | 32 | – | – | 4 | 4 | 8 | 8 | 32 | 64 | >140 | – | 64 | –
5 | CC[C@H](C)[C@H](NC(=O)[C@H](CCC(=O)O)NC(=O)[C@H](Cc1c[nH]cn1)NC(=O)[C@H](Cc1ccccc1)NC(=O)[C@H](CCCCN)NC(=O)[C@H](CCCNC(=N)N)NC(=O)[C@H](Cc1c[nH]c2ccccc12)NC(=O)[C@H](C)NC(=O)[C@H](CCCCN)NC(=O)[C@H](CCCCN)NC(=O)[C@@H](NC(=O)[C@@H](NC(=O)[C@H](CCCCN)NC(=O)[C@H](CC(N)=O)NC(=O)[C@H](CC(C)C)NC(=O)[C@H](Cc1c[nH]c2ccccc12)NC(=O)CN)[C@@H](C)CC)[C@@H](C)CC)C(=O)N[C@@H](Cc1ccccc1)C(=O)N[C@@H](CO)C(=O)N[C@@H](CCCCN)C(N)=O [Sophieganan] | – | – | 4 | – | – | – | 8 | – | – | 8 | 8 | – | 2 | 32 | 32 | 49 | – | – | –
6 | CC[C@H](C)[C@H](NC(=O)[C@H](CCCCN)NC(=O)[C@H](CCCCN)NC(=O)[C@@H](NC(=O)[C@@H](NC(=O)[C@H](CCCCN)NC(=O)[C@@H](NC(=O)[C@H](C)NC(=O)[C@H](CC(C)C)NC(=O)[C@H](Cc1c[nH]cn1)NC(=O)CNC(=O)[C@H](C)NC(=O)[C@H](CC(C)C)NC(=O)[C@H](CC(=O)O)NC(=O)[C@H](CCCCN)NC(=O)[C@H](C)NC(=O)[C@H](C)NC(=O)[C@H](CO)NC(=O)[C@H](CCCCN)NC(=O)[C@H](CC(C)C)NC(=O)[C@H](CC(N)=O)NC(=O)[C@H](CC(=O)O)NC(=O)[C@H](CC(C)C)NC(=O)[C@@H](NC(=O)CN)C(C)C)[C@@H](C)O)C(C)C)[C@@H](C)CC)C(N)=O [Killixin] | – | – | 8 | – | – | 32 | 32 | – | – | 32 | 32 | 16 | 16 | 64 | 128 | 22 | 76 | – | –
7 | CC[C@H](C)[C@H](N)C(=O)NCC(=O)N[C@@H](CCCCN)C(=O)N[C@@H](CCC(=O)O)C(=O)N[C@@H](Cc1ccccc1)C(=O)N[C@@H](CCCCN)C(=O)N[C@@H](CCCNC(=N)N)C(=O)N[C@H](C(=O)N[C@@H](Cc1c[nH]cn1)C(=O)N[C@@H](CCC(=O)O)C(=O)N[C@@H](CCCNC(=N)N)C(=O)N[C@H](C(=O)N[C@@H](CCCCN)C(=O)N[C@@H](CCCNC(=N)N)C(=O)N[C@@H](Cc1ccccc1)C(=O)N[C@@H](CC(C)C)C(=O)N[C@@H](CCCNC(=N)N)C(=O)N[C@@H](CCC(=O)O)C(=O)N[C@@H](CC(C)C)C(=O)N[C@@H](CC(C)C)C(=O)N[C@@H](CCCNC(=N)N)C(=O)N[C@@H](Cc1c[nH]cn1)C(=O)N[C@@H](CC(C)C)C(=O)N[C@@H](CCCNC(=N)N)C(N)=O)[C@@H](C)CC)[C@@H](C)CC [OP-145-TIII4] | – | – | 256 | – | – | 64 | 128 | – | – | 64 | 64 | 64 | 64 | 128 | 256 | >114 | >512 | 128 | S. aureus ATCC 33591 MBC [1]: 256 µg/mL; E. coli ATCC 25922 MBC [2]: 128 µg/mL; E. coli ATCC 25922 MIC [2]: 64 µg/mL; E. coli ATCC 43827 MBC [3]: 64 µg/mL; E. coli ATCC 43827 MIC [3]: 64 µg/mL
8 | CC[C@H](C)[C@H](NC(=O)[C@H](Cc1ccccc1)NC(=O)[C@H](CCCCN)NC(=O)[C@H](CC(N)=O)NC(=O)[C@H](CC(C)C)NC(=O)[C@H](CCCNC(=N)N)NC(=O)CN)C(=O)N[C@@H](CCCCN)C(=O)N[C@@H](CCCCN)C(=O)N[C@@H](C)C(=O)N[C@@H](Cc1c[nH]c2ccccc12)C(=O)N[C@@H](CCCNC(=N)N)C(=O)N[C@@H](CCCCN)C(=O)N[C@@H](Cc1ccccc1)C(=O)N[C@H](C(=O)N[C@@H](CC(C)C)C(=O)N[C@@H](CCCCN)C(=O)N[C@@H](Cc1ccccc1)C(=O)N[C@@H](C)C(=O)N[C@@H](CCCCN)C(N)=O)C(C)C [Piomiren] | – | – | 64 | – | – | 8 | 16 | – | – | 8 | 8 | 4 | 4 | 16 | 32 | >146 | >512 | 32 | –
